Measured values: PubChem BioAssay AID686979 (National Center for Advancing Translational Sciences (NCATS), 2013)
Values joined by “and” are separate entries in the source; they are usually repeats but may differ in a detail not shown here. Identical values can stand only once. Hit rate of the full screen: of about 420,000 compounds, about 50,000 (12%) were called active. The shares of active, inactive and inconclusive entries below differ from those in the screen. Calls come from the whole dose curve; as a rule, active = well fitted inhibition curve with a large enough effect; inconclusive = small, poorly fitted or top-dose-only effect; inactive = flat fitted curve, though single readings scatter. Where the call is inconclusive, the potency comes from a doubtful curve fit.
Potency is the fitted concentration of half-maximal effect; tags give direction and shape of the fitted curve.

Experiment: qHTS for Inhibitors of human tyrosyl-DNA phosphodiesterase 1 (TDP1): qHTS in cells in presence of CPT; note: nearly all actives have a fitted effect of over 55% in size
Settings: chicken DT40 Tdp1-/-;hTDP1 cells + 20 nM CPT, ATP luminescence, 48 h; series mostly up to 46.2 µM
Method in brief: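 Cell growth measured by CellTiter-Glo luminescence after a minimum 48 h, 37 C compound exposure with 20 nM CPT in Tdp1-knockout DT40 cells stably expressing hTDP1, seeded 400/well; qHTS titration format.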
In the case of `CCc1ccc(-n2c(=O)c3c4c(sc3n(CC(=O)N3CCC(C)CC3)c2=O)CCC4)cc1`, the Potency is reported as “inactive”.
With `COc1ccc(S(=O)(=O)N2CCOCC2)cc1NC(=O)CCc1nc2ccccc2c(=O)[nH]1` the Potency was inconclusive: 29.1 µM [inhibitor, single point].
In the case of `O=C(Nc1ccc(N2CCOCC2)cc1)C1(c2ccc(Cl)cc2)CCC1`, the Potency is reported as “inactive”.
For `CC(=O)Nc1ccc(S(=O)(=O)NCCc2ccc(F)cc2)cc1`, the Potency was inconclusive: 29.1 µM [inhibitor, single point].
For `CCN(c1ccccc1)S(=O)(=O)c1ccc(F)cc1C`, the Potency was “inactive”.
For `COC(=O)CNC(=O)COC(=O)/C=C/c1ccccc1[N+](=O)[O-]`, the Potency was “inactive”.
For `Cc1ccc2c(c1)c1c(n2CC(O)CNC(C)(C)C)CCCC1` (centres undefined), the Potency was inconclusive: 20.6 µM [inhibitor, single point].
With `O=C1C=CC(=Nc2ccc(F)cc2)O1` the Potency was active: 2.31 µM.
In the case of `Cc1cc(OCCCC(=O)Nc2cccc(-n3cnnn3)c2)ccc1Cl`, the Potency is reported as inconclusive: 20.6 µM [inhibitor, single point].
With `Nc1nc(CN2CCN(c3ccccn3)CC2)nc(Nc2ccc(F)cc2)n1` the Potency was inconclusive: 9.2 µM [inhibitor, partial curve].
In the case of `CCCCCCN(C(=O)CCCCCN1C(=O)NC(c2ccc([N+](=O)[O-])cc2)C(C(=O)OCc2ccccc2)=C1C)C(C(=O)NCCCC)C1CCCCC1` (centres undefined), the Potency is reported as inconclusive: 6.51 µM [inhibitor, partial curve].
With `CN(C(=O)c1cccc(NC(=O)Cc2cccc(NC(=O)C3CCCN(C(=O)C4CCCC4)C3)c2)c1)C1CCC1` (centres undefined) the Potency was active: 16.4 µM.
In the case of `COc1ccc(C(=O)OCC(=O)Nc2cc(S(=O)(=O)N3CCOCC3)ccc2N2CCCC2)cc1`, the Potency is reported as “inactive”.
In the case of `COc1ccccc1C(O)(C(=O)NNc1ccccc1C)c1ccccc1OC`, the Potency is reported as inconclusive: 29.1 µM [inhibitor, single point].
With `Cc1ccc(S(=O)(=O)Oc2ccc(/C=N/NC(=O)c3ccncc3)cc2)cc1` the Potency was “inactive”.
In the case of `N#Cc1ccc(S(=O)(=O)N2CCCN(c3nc4ccc(Cl)cc4s3)CC2)cc1`, the Potency is reported as inconclusive: 29.1 µM [inhibitor, single point].
For `Cc1ccc(Cl)cc1NC(=O)c1oc2ccc(S(=O)(=O)N3CCCCC3)cc2c1C`, the Potency was “inactive”.
In the case of `COc1ccc(C(=O)OCc2nc(N)nc(Nc3ccccc3C)n2)cc1OC`, the Potency is reported as inconclusive: 29.1 µM [inhibitor, single point].
In the case of `O=C(NCCN1CCCCC1)c1ccc(Oc2cc(Cl)cc(Cl)c2)o1`, the Potency is reported as inconclusive: 29.1 µM [inhibitor, single point].
For `Cc1cc(C)c(NC(=O)C2CC3CCC2C3)c(C)c1` (centres undefined), the Potency was “inactive”.
With `CCOC(=O)C1CCN(C(=O)c2sc3ncnc(N4CCC(C)CC4)c3c2C)CC1` the Potency was inconclusive: 20.6 µM [inhibitor, partial curve].
With `Cc1ccc(NC(=O)C2CCCN(S(=O)(=O)c3cccc4cccnc34)C2)cc1` (centres undefined) the Potency was inconclusive: 18.4 µM [inhibitor, single point] and inconclusive: 25.9 µM [inhibitor, single point].
For `O=C(/C=C/Nc1ccccc1Br)c1ccccn1`, the Potency was inconclusive: 18.4 µM [inhibitor, single point].
For `Cc1cccc2cc(CN(CC3CCCO3)S(=O)(=O)c3ccccc3)c(=O)[nH]c12` (centres undefined), the Potency was inconclusive: 23.1 µM [inhibitor, single point].
In the case of `NC(=O)c1c(NC(=O)CSc2nnc(-c3ccco3)n2-c2ccccc2)sc2c1CCC2`, the Potency is reported as inconclusive: 11.6 µM [inhibitor, partial curve].
With `CCOc1ccccc1N1CCN(c2nc(N)c(C#N)c(CC#N)c2C#N)CC1` the Potency was inconclusive: 29.1 µM [inhibitor, single point].
In the case of `COc1cccc(CN2CCN(S(=O)(=O)c3ccccc3)CC2)c1OC`, the Potency is reported as inconclusive: 29.1 µM [inhibitor, single point].
In the case of `CC(CC(=O)Nc1ccc2c(c1)OCCO2)c1ccccc1` (centres undefined), the Potency is reported as inconclusive: 8.2 µM [inhibitor, partial curve].
For `Clc1ccc(CN2CCC(c3ccccc3)CC2)cc1`, the Potency was inconclusive: 29.1 µM [inhibitor, single point].
For `Cc1ccc(S(=O)(=O)c2cn(Cc3cccc(C)c3)c3cc4c(cc3c2=O)OCO4)cc1`, the Potency was inconclusive: 14.6 µM [inhibitor, single point].
In the case of `CCCN1CCN(C(=O)CCc2nnc3ccc(N4CCN(c5cccc(OC)c5)CC4)nn23)CC1`, the Potency is reported as inconclusive: 23.1 µM [inhibitor, single point].
In the case of `COc1ccc(-n2c(N)cc(=O)nc2SCC(=O)NC2CCCCC2)cc1`, the Potency is reported as “inactive”.
For `CC(C)NC(=O)Nc1cccc2c1O[C@H](CN(C)S(=O)(=O)c1ccc(F)cc1)[C@@H](C)CN([C@H](C)CO)C2=O`, the Potency was active: 16.4 µM.
For `CCN(CC)CCCN1C(=O)C(O)=C(C(=O)c2cc3ccccc3o2)C1c1ccccn1` (centres undefined), the Potency was inconclusive: 29.1 µM [inhibitor, single point].
With `CCOC(=O)N1CCC(Nc2c(N3CCN(c4cc(Cl)ccc4C)CC3)c(=O)c2=O)CC1` the Potency was inconclusive: 11.6 µM [inhibitor, partial curve].
In the case of `COc1ccc(NS(=O)(=O)c2c(C)[nH]c(C)c2C(=O)N2CCCCC2)cc1Cl`, the Potency is reported as inconclusive: 29.1 µM [inhibitor, single point].
For `O=C(NC(Cc1c[nH]c2ccccc12)C(=O)Nc1ccc(OC(F)(F)F)cc1)c1cccs1` (centres undefined), the Potency was inconclusive: 20.6 µM [inhibitor, single point].
With `Cc1ccc(-c2nc3cnccn3c2Nc2ccc3c(c2)OCO3)cc1` the Potency was inconclusive: 20.6 µM [inhibitor, single point].
With `COc1ccc(CNCCNC(=O)c2cccs2)c(OC)c1OC` the Potency was “inactive”.
With `Cc1nn(C(C)C(=O)N2CCN(c3ccc(Cl)cc3)CC2)c(=O)c2cc3occc3n12` (centres undefined) the Potency was inconclusive: 23.1 µM [inhibitor, single point].
For `CCc1c(C)[nH]c(C(=O)OCc2ccccc2)c1C`, the Potency was inconclusive: 25.9 µM [inhibitor, single point].
With `O=C(CSc1nnc(SCc2ccc(F)cc2)s1)Nc1ccc(C(=O)O)cc1` the Potency was “inactive”.
With `Brc1ccc(OCCOCCN2CCOCC2)cc1` the Potency was “inactive”.
With `CC(=O)CSc1nnc2cc(C)c3cc(C)cc(C)c3n12` the Potency was “inactive”.
In the case of `COc1cc(/C=C2/C(=O)CNC2=O)ccc1O`, the Potency is reported as “inactive”.
In the case of `COc1cc(/C=C2\SC(N)=NC2=O)cc(Cl)c1O`, the Potency is reported as “inactive”.
For `CCOC(=O)N1CCN(Cc2nc3c(c(=O)n(C)c(=O)n3C)n2CCCc2ccccc2)CC1`, the Potency was inconclusive: 29.1 µM [inhibitor, single point].
For `COc1cccc(N=Cc2c[nH][nH]c2=O)c1`, the Potency was inconclusive: 29.1 µM [inhibitor, single point].
With `Cc1cccc(NC(=S)N2CCC(NC(=O)c3ccco3)CC2)c1` the Potency was “inactive”.
For `CCOc1cc(NC(=S)Nc2ccccc2)c(OCC)cc1NC(=O)c1ccccc1`, the Potency was active: 18.4 µM.
In the case of `CC(C)(C)c1ccc(C(=O)N2CCC2(C)C(=O)Nc2ccc3nc[nH]c3c2)cc1` (centres undefined), the Potency is reported as active: 14.6 µM.
For `COc1ccc(S(=O)(=O)N2CCOCC2)cc1NC(=O)c1ccc(S(=O)(=O)N(C)c2ccccc2OC)cc1`, the Potency was inconclusive: 18.4 µM [inhibitor, single point].
In the case of `CSc1ccc(/C=C/c2nc3ccccc3n2S(=O)(=O)c2cccc(Cl)c2)cc1`, the Potency is reported as active: 13 µM.
For `CCCCn1c(N)c(S(=O)(=O)c2ccc(C)cc2)c2nc3ccccc3nc21`, the Potency was “inactive”.
For `O=C(CN1CC[n+]2c(-c3cccs3)csc21)c1ccc(Br)cc1`, the Potency was active: 1.84 µM.
For `COc1ccccc1N(CC(=O)Nc1ccc2c(c1)OCO2)S(=O)(=O)c1ccccc1`, the Potency was inconclusive: 16.4 µM [inhibitor, partial curve].
With `Cc1ccc2c(c1)c(=O)c(C(=O)c1ccc3c(c1)OCO3)cn2Cc1ccc(Cl)cc1` the Potency was inconclusive: 18.4 µM [inhibitor, single point].
With `COc1cc(NC(=O)CCc2c(C)nc3cc(-c4ccccc4)nn3c2C)cc(OC)c1OC` the Potency was inconclusive: 23.1 µM [inhibitor, single point].
With `COc1ccc(C(=O)N/C(=C\c2ccc(Cl)cc2)C(=O)NCCN2CCOCC2)cc1` the Potency was “inactive”.
In the case of `CCOc1ccc(CN(C(=O)c2cc(=O)c3cc(C)cc(C)c3o2)C2CCS(=O)(=O)C2)cc1` (centres undefined), the Potency is reported as inconclusive: 29.1 µM [inhibitor, single point].
With `CCOC(=O)[C@]12CCC=C1N(Cc1ccco1)C(=O)[C@H](CC(=O)NCC1CCCCC1)C2` the Potency was inconclusive: 29.1 µM [inhibitor, single point].
In the case of `Cc1ccc(OCC(=O)OCC(=O)c2ccccc2)cc1C`, the Potency is reported as “inactive”.
In the case of `NC(Cc1ccc(O)c(O)c1)C(=O)O` (centres undefined), the Potency is reported as active: 3.66 µM.
In the case of `Cc1ccc(S(=O)(=O)NCCC(=O)N2CCCCCCC2)cc1`, the Potency is reported as “inactive”.
With `Cc1ccnc(NC(=O)c2ccc(OCC3CCCO3)cc2)c1` (centres undefined) the Potency was inconclusive: 20.6 µM [inhibitor, partial curve].
For `COc1ccc(NC(=O)CSc2nc3sc(C)c(C)c3c(=O)n2Cc2ccco2)cc1`, the Potency was inconclusive: 29.1 µM [inhibitor, single point].
For `CC(C)(C)c1ccc(C(=O)N2CCC2(C)C(=O)Nc2cccc(C#N)c2)cc1` (centres undefined), the Potency was active: 16.4 µM.
For `Cc1cc(O)c2c(c1)O[C@@]1(C)CC[C@H]3C(C)(C)CCCC34CO[C@@H]2[C@H]41` (some centres undefined), the Potency was inconclusive: 29.9 µM [inhibitor, single point].
For `CCOc1ccc(S(=O)(=O)N(CC)CC(=O)NCc2ccncc2)cc1C`, the Potency was “inactive”.
